Experimental data as given in the supplement of paper PMC8728848.
This is one part of the list.

Experiments:
Assay in all cases: glycan array binding signal (z-score within array); higher = stronger binding
Details in all cases: glycan notation: IUPAC condensed, linker removed
GalNAc(b1-4)GlcNAc = target: GalNAc(b1-4)GlcNAc
In short: (§1)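 Negative Z-scores can be read as non-binding. The Z-score is calculated within each array and then averaged across arrays of one protein sequence at different concentrations or buffers and across linkers. Arrays, 3228 in all, were curated from the Consortium for Functional Glycomics database and kept only where the protein sequence was available.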

[1] = target: GalNAc(b1-4)GlcNAc(b1-2)Man
In short: as §1

[2] = target: GalNAc(b1-4)GlcNAc(b1-2)Man(a1-3)[GalNAc(b1-4)GlcNAc(b1-2)Man(a1-6)]Man(b1-4)GlcNAc(b1-4)GlcNAc
In short: as §1

[3] = target: GalNAc(b1-4)GlcNAc(b1-3)GalNAc(b1-4)GlcNAc
In short: as §1

GalNAc(b1-4)GlcNAc6S = target: GalNAc(b1-4)GlcNAc6S
In short: as §1

GalNAc(b1-6)GalNAc = target: GalNAc(b1-6)GalNAc
In short: as §1

GalNAc3S(b1-4)GlcNAc = target: GalNAc3S(b1-4)GlcNAc
In short: as §1

GalNAc3S(b1-4)GlcNAc3S = target: GalNAc3S(b1-4)GlcNAc3S
In short: as §1

[4] = target: GalNAc3S(b1-4)[Fuc(a1-3)]GlcNAc
In short: as §1

GalNAc4S6S(b1-4)GlcNAc = target: GalNAc4S6S(b1-4)GlcNAc
In short: as §1

GalNAc6S(b1-4)GlcNAc = target: GalNAc6S(b1-4)GlcNAc
In short: as §1

Glc(a1-4)Glc = target: Glc(a1-4)Glc
In short: as §1

[5] = target: Glc(a1-4)Glc(a1-4)Glc(a1-4)Glc
In short: as §1

Glc(a1-6)Glc(a1-6)Glc = target: Glc(a1-6)Glc(a1-6)Glc
In short: as §1

[6] = target: Glc(a1-6)Glc(a1-6)Glc(a1-6)Glc
In short: as §1

Glc(b1-4)Glc = target: Glc(b1-4)Glc
In short: as §1

Glc(b1-6)Glc = target: Glc(b1-6)Glc
In short: as §1

GlcA(b1-3)Gal = target: GlcA(b1-3)Gal
In short: as §1

GlcA(b1-3)GlcNAc = target: GlcA(b1-3)GlcNAc
In short: as §1

GlcA(b1-6)Gal = target: GlcA(b1-6)Gal
In short: as §1

[7] = target: GlcA3S(b1-3)Gal(b1-4)GlcNAc(b1-2)Man
In short: as §1

[8] = target: GlcA3S(b1-3)Gal(b1-4)GlcNAc(b1-3)Gal(b1-4)Glc
In short: as §1

[9] = target: GlcNAc(a1-3)Gal(b1-4)GlcNAc
In short: as §1

[10] = target: GlcNAc(a1-4)Gal(b1-3)GlcNAc
In short: as §1

[11] = target: GlcNAc(a1-4)Gal(b1-4)GalNAc
In short: as §1

[12] = target: GlcNAc(a1-4)Gal(b1-4)GlcNAc
In short: as §1

[13] = target: GlcNAc(a1-4)Gal(b1-4)GlcNAc(b1-3)Gal(b1-4)Glc
In short: as §1

[14] = target: GlcNAc(a1-4)Gal(b1-4)GlcNAc(b1-3)Gal(b1-4)GlcNAc
In short: as §1

[15] = target: GlcNAc(a1-4)Gal(b1-4)GlcNAc(b1-3)Gal(b1-4)GlcNAc(b1-3)Gal(b1-4)GlcNAc
In short: as §1

[16] = target: GlcNAc(a1-4)Gal(b1-4)GlcNAc(b1-3)Gal(b1-4)[Fuc(a1-3)]GlcNAc(b1-3)Gal(b1-4)[Fuc(a1-3)]GlcNAc
In short: as §1

[17] = target: GlcNAc(a1-6)Gal(b1-4)GlcNAc
In short: as §1

[18] = target: GlcNAc(b1-2)Gal(b1-3)GalNAc
In short: as §1

[19] = target: GlcNAc(b1-2)Man(a1-3)[GlcNAc(b1-2)Man(a1-6)]Man(b1-4)GlcNAc(b1-4)GlcNAc
In short: as §1

[20] = target: GlcNAc(b1-2)Man(a1-3)[GlcNAc(b1-2)Man(a1-6)]Man(b1-4)GlcNAc(b1-4)[Fuc(a1-6)]GlcNAc
In short: as §1

[21] = target: GlcNAc(b1-2)Man(a1-3)[GlcNAc(b1-4)][GlcNAc(b1-2)Man(a1-6)]Man(b1-4)GlcNAc(b1-4)GlcNAc
In short: as §1

[22] = target: GlcNAc(b1-2)Man(a1-3)[GlcNAc(b1-4)][GlcNAc(b1-2)Man(a1-6)]Man(b1-4)GlcNAc(b1-4)[Fuc(a1-6)]GlcNAc
In short: as §1

[23] = target: GlcNAc(b1-2)[GlcNAc(b1-4)]Man(a1-3)[GlcNAc(b1-2)Man(a1-6)]Man(b1-4)GlcNAc(b1-4)GlcNAc
In short: as §1

B1: DC-ASGPR Long (Homo sapiens) (protein)
chain: MTRTYENFQYLENKVKVQGFKNGPLPLQSLLQRLRSGPCHLLLSLGLGLLLLVIICVVGFQNSKFQRDLVTLRTDFSNFTSNTVAEIQALTSQGSSLEETIASLKAEVEGFKQERQAGVSELQEHTTQKAHLGHCPHCPSVCVPVHSEMLLRVQQLVQDLKKLTCQVATLNNNASTEGTCCPVNWVEHQDSCYWFSHSGMSWAEAEKYCQLKNAHLVVINSREEQNFVQKYLGSAYTWMGLSDPEGAWKWVDGTDYATGFQNWKPGQPDDWQGHGLGGGEDCAHFHPDGGWNDDVCQRPYHWVCEAGLGQTSQESH
glycan array binding signal (z-score) (GalNAc(b1-4)GlcNAc): 2.19
glycan array binding signal (z-score) [1]: 1.24
glycan array binding signal (z-score) [2]: 0.951
glycan array binding signal (z-score) [3]: 2.15
glycan array binding signal (z-score) (GalNAc(b1-4)GlcNAc6S): 1.86
glycan array binding signal (z-score) (GalNAc(b1-6)GalNAc): -0.651
glycan array binding signal (z-score) (GalNAc3S(b1-4)GlcNAc): -0.356
glycan array binding signal (z-score) (GalNAc3S(b1-4)GlcNAc3S): 0.117
glycan array binding signal (z-score) [4]: -0.402
glycan array binding signal (z-score) (GalNAc4S6S(b1-4)GlcNAc): 0.29
glycan array binding signal (z-score) (GalNAc6S(b1-4)GlcNAc): 1.58
glycan array binding signal (z-score) (Glc(a1-4)Glc): -0.292
glycan array binding signal (z-score) [5]: -0.489
glycan array binding signal (z-score) (Glc(a1-6)Glc(a1-6)Glc): 0.583
glycan array binding signal (z-score) [6]: 0.178
glycan array binding signal (z-score) (Glc(b1-4)Glc): -0.421
glycan array binding signal (z-score) (Glc(b1-6)Glc): 0.425
glycan array binding signal (z-score) (GlcA(b1-3)Gal): -0.156
glycan array binding signal (z-score) (GlcA(b1-3)GlcNAc): -0.594
glycan array binding signal (z-score) (GlcA(b1-6)Gal): -0.381
glycan array binding signal (z-score) [7]: -0.33
glycan array binding signal (z-score) [8]: -0.375
glycan array binding signal (z-score) [9]: 0.005
glycan array binding signal (z-score) [10]: -0.558
glycan array binding signal (z-score) [11]: -0.054
glycan array binding signal (z-score) [12]: -0.082
glycan array binding signal (z-score) [13]: -0.062
glycan array binding signal (z-score) [14]: -0.219
glycan array binding signal (z-score) [15]: -0.481
glycan array binding signal (z-score) [16]: -0.407
glycan array binding signal (z-score) [17]: -0.441
glycan array binding signal (z-score) [18]: -0.299
glycan array binding signal (z-score) [19]: 0.282
glycan array binding signal (z-score) [20]: -0.319
glycan array binding signal (z-score) [21]: -0.323
glycan array binding signal (z-score) [22]: -0.117
glycan array binding signal (z-score) [23]: -0.304
